B1: UniProt A0EPZ9; numbered along this chain (parent)
chain: MDWQKSLTLIVALTLSRGIGLKNDLPWKLKSDMMFFSRVTSGLLVTRSTGQMNVVLMGRKTWESLPAHSRPLKNRINVVISRQEVLDLGGGAYHARSLDDALALLSQIYDSTSKIQLNRVFVIGGGELCKAAMEHSRLNRIIATVIHNEVDCDVFFPIDFRSSQSCLPWRKQDHSVLEAWVGSKVPQGKINENGFIYEFEMWIRDI

The data set covers variants of B1. Nature of the data set: selection coefficient against synonymous wild-type codons (log2 per generation); higher = faster growth than wild type. Conditions: with Saccharomyces cerevisiae carrying the variant on a plasmid. As for the experimental part:
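Pooled growth of yeast carrying single-residue variants of P. jirovecii dihydrofolate reductase (own DFR1 gene intact), two passages at 30 °C, three cultures, sequenced before and after. Codons with under 15 starting reads are left out; codons of one change are averaged.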

± gives the standard deviation of the averaged measurements. Growth of baker's yeast expressing single-residue variants of Pneumocystis jirovecii dihydrofolate reductase in 8.8 or 44 µM methotrexate (about 75% and 90% inhibition of the wild type). Selection coefficient per generation; 0 = like wild type, above 0 = less sensitive, below 0 = more sensitive or loss of function. No active / inactive call per row; the paper calls resistant above 0.220 (8.8 µM) or 0.243 (44 µM) together with a significance test. At 44 µM about 15% of codons end with one read or none, so the lowest values are floors (replicate rank correlation 0.74; 0.94 at 8.8 µM).

Consider MDWQKSLTLIVALTLSRGIGLKNDLPWKLKSDMMFFSRVTSGLLVTRSTGQMNVVLMGRKTWESLPAHSRPLKNRINVVISRQEVLDLGGGAYHARSLDDALALLSQIYDSTSKIQLNRVFVIGGGELCKAAMEHSRLNRIDATVIHNEVDCDVFFPIDFRSSQSCLPWRKQDHSVLEAWVGSKVPQGKINENGFIYEFEMWIRDI [I142D], for which the “selection coefficient against synonymous wild-type codons (log2)” value (“selection coefficient … (log2)” for short) is, setting by setting: (methotrexate 8.8 µM) -0.765 ± 0.038; (methotrexate 44 µM) -0.261 ± 0.044.

On to MDWQKSLTLIVALTLSRGIGLKNDLPWKLKSDMMFFSRVTSGLLVTRSTGQMNVVLMGRKTWESLPAHSRPLKNRINVVISRQEVLDLGGGAYHARSLDDALALLSQIYDSTSKIQLNRVFVIGGGELCKAAMEHSRLNRIIATVIHNHVDCDVFFPIDFRSSQSCLPWRKQDHSVLEAWVGSKVPQGKINENGFIYEFEMWIRDI [E149H], for which the “selection coefficient … (log2)” value is -0.138 ± 0.092 (methotrexate 8.8 µM) and -0.134 ± 0.061 (methotrexate 44 µM).

As for MDWQKSLTLIVALTLSRGIGLKNDLPWKLKSDMMFFSRVTSGLLVTRSTGQMNVVLMGRKTWESLPAHSRPLKNRINVVISRQEVLDLGGGAYHARSLDDALALLSQIYLSTSKIQLNRVFVIGGGELCKAAMEHSRLNRIIATVIHNEVDCDVFFPIDFRSSQSCLPWRKQDHSVLEAWVGSKVPQGKINENGFIYEFEMWIRDI [D110L], the “selection coefficient … (log2)” value (methotrexate 8.8 µM) is -0.245 ± 0.042 and the “selection coefficient … (log2)” value (methotrexate 44 µM) is -0.107 ± 0.12.

As to MDWQKSLTLIVALTLSRGIGLKNDLPWKLKSDMMFFSRVTSGLLVTRSTGQMNVVLMGRKTWESLPAHSRPLKNRINVVISRQEVLDLGGGAYHARSLDDALALLSQIYDSTSKIQLNRVFVIGGGELCKAAMEHSRLNRIINTVIHNEVDCDVFFPIDFRSSQSCLPWRKQDHSVLEAWVGSKVPQGKINENGFIYEFEMWIRDI [A143N], the “selection coefficient … (log2)” value was -0.0902 ± 0.055 (methotrexate 8.8 µM) and -0.133 ± 0.23 (methotrexate 44 µM).

Regarding MDWQKSLTLIVALTLSRGIGLKNDLPWKLKSDMMFFSRVTSGLLVTRSTGQMNVVLMGRKTWESLPAHSRPLKNRINVVISRQEVLDLGGGAYHARSLDDALALLSQIYDSTSKIQLNRVFVIGGGELCKAHMEHSRLNRIIATVIHNEVDCDVFFPIDFRSSQSCLPWRKQDHSVLEAWVGSKVPQGKINENGFIYEFEMWIRDI [A132H], the “selection coefficient … (log2)” value (methotrexate 8.8 µM) was -0.733 ± 0.014 and the “selection coefficient … (log2)” value (methotrexate 44 µM) was -0.186 ± 0.096.

On to MDWQKSLTLIVALTLSRGIGLKNDLPWKLKSDMMFFSRVTSGLLVTRSTGYMNVVLMGRKTWESLPAHSRPLKNRINVVISRQEVLDLGGGAYHARSLDDALALLSQIYDSTSKIQLNRVFVIGGGELCKAAMEHSRLNRIIATVIHNEVDCDVFFPIDFRSSQSCLPWRKQDHSVLEAWVGSKVPQGKINENGFIYEFEMWIRDI [Q51Y], for which the “selection coefficient … (log2)” value runs as follows: (methotrexate 8.8 µM) -0.313 ± 0.18; (methotrexate 44 µM) -0.24 ± 0.084.

For MDWQKSLTLIVALTLSRGIGLKNDLPWKLKSDMMFFSRVTSGLLVTRSTGQMNVVLMGRKTWESLPAHSRPLKNRINVVISRQEVLDLGGGAYHARSLDDALALLSQIYDSTSKIQLNRVFVIGGGELCKAAMEHSRLNRIIATVIHNEVDCDVFFPIDFRSSQSCLPWTKQDHSVLEAWVGSKVPQGKINENGFIYEFEMWIRDI [R170T], the “selection coefficient … (log2)” value is 0.00612 ± 0.04 (methotrexate 8.8 µM) and -0.0607 ± 0.096 (methotrexate 44 µM).

In the case of MDWQKSLTLIVALTLSRGIGLKNDLPWKLKSDMMFFSRVTSGLLVTRSTGQMNVVLMGRKTWESLPAHSRPLKNRINVVISRQEVLDLGGGAYHARSLQDALALLSQIYDSTSKIQLNRVFVIGGGELCKAAMEHSRLNRIIATVIHNEVDCDVFFPIDFRSSQSCLPWRKQDHSVLEAWVGSKVPQGKINENGFIYEFEMWIRDI [D99Q], the “selection coefficient … (log2)” value is -0.253 ± 0.043 (methotrexate 8.8 µM) and -0.113 ± 0.19 (methotrexate 44 µM).

These data come from the supplement of paper PMC11125491.
